The text below walks through data of US8778342B2, “Antibody therapy” (Immunomedics, Inc., priority 2002, dated 2014).

This assay relates to TT MTC xenografts. The assay can be described thus: Chemotherapy of TT MTC xenografts in nude mice. The format is in vivo, human. The conditions noted are these: doses of FIG. 3: doxorubicin 20 mg/m^2 and DTIC 300 mg/m^2 days 0-2, cyclophosphamide 600 mg/m^2 and vincristine 4.2 μg day 0. (Xenograft models place foreign cells or tissue in a host animal.)
Take `CN(C)/N=N/c1[nH]cnc1C(N)=O` [DTIC, dacarbazine]: the “Approximate mean time to doubling” value was about 7.5 weeks. The result for `COc1cccc2c1C(=O)c1c(O)c3c(c(O)c1C2=O)C[C@@](O)(C(=O)CO)C[C@@H]3O[C@H]1C[C@H](N)[C@H](O)[C@H](C)O1` [doxorubicin] reads about 2.5 weeks. As for `CC[C@]1(O)C[C@H]2CN(CCc3c([nH]c4ccccc34)[C@@](C(=O)OC)(c3cc4c(cc3OC)N(C=O)[C@H]3[C@@](O)(C(=O)OC)[C@H](OC(C)=O)[C@]5(CC)C=CCN6CC[C@]43[C@@H]65)C2)C1` [vincristine], the figure is about 1.5 weeks.
